Data on 22 molecules can be found in paper PMC12136788.

To fix the notation:
T1: UNK ZnF1-3 (human, UniProt Q9C0B0 31-174)
T1 sequence: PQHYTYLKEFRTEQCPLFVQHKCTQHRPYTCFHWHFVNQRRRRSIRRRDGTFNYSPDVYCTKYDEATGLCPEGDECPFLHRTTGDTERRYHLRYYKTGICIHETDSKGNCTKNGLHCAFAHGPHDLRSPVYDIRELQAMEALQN

B1: 53177821_53178182_337_CDS_ENSG00000100519_ENST00000606149|human|control|control (ssRNA)
RNA: GGGAGUUCUACAGUCCGACGAUCAGGGUCCUCAUGAGACAUGUUAUAAACCAGUGGAUCCACCUCUCUCGGCAAAUAUCUCAUGAUAGUUAGUGUAGUCAUAUCCAAAGCAACUCUUGUUCCUGGCUUCAGCUUACUUUUGUCCAACAGAGGAUUGAGCAUCA
B2: chrX:131284163:131284164:-_ENSMUSG00000050394_ENSMUST00000052431|mus_mus|motif|central (ssRNA)
RNA: GGGAGUUCUACAGUCCGACGAUCGGGACUCCUGUUUCCAACCACUGAUAGGCUGGCCAGAUGUUUACUGAUAUUGGGGCGGAGGGAAAAGCCAGCAUUUAUGUUCUUCGUGAACCUUUUCUUUCUUUGAGUGGAAACACACUUCAACAGAGGAUUGAGCAUCA
B3: chr4:82150701:82150702:-_ENSMUSG00000008575_ENSMUST00000064770|mus_mus|motif|central (ssRNA)
RNA: GGGAGUUCUACAGUCCGACGAUCUAAAACGCACUUUCCCGGAGAUGCCCAAGAAAAUCUUCCAGAAGCAAGGAUUUCAUCGGUUCAUUUUACAGUCAUCUGAGCCCAGCGAUGCGAUCAAUCAGGACGGGGCACUGCGCCGGUCAACAGAGGAUUGAGCAUCA
B4: chr18:31598358:31598359:-_ENSMUSG00000024261_ENSMUST00000025110|mus_mus|motif|central (ssRNA)
RNA: GGGAGUUCUACAGUCCGACGAUCAAAUACAUUUUCAUCGAAUUUACAAACACUGUGAUAUCAAACACAUUCUCAAAAAUGCGGAAGCACUGACACAAAACUUGACUCAAAGGUAAAAUUUCCAGUAGACAUUAUCUCUAACUUCAACAGAGGAUUGAGCAUCA
B5: chr17:64801638:64801639:+_ENSG00000154229_ENST00000413366|hu_mus|hu_hu_hu_mus_False|28_28 (ssRNA)
RNA: GGGAGUUCUACAGUCCGACGAUCUAUAUAUAUAUAUACAUAUGUACACAUAUAUAGUAAAACCCUAGUUAAACGUGUAAAGUAGCCAUUCAUUUUUAAAAUUACAUCUACAUUUAAAAAUUAAUAUAUCUGAUAGAGUGCCAGCAACAGAGGAUUGAGCAUCA
B6: 93174519_93174639_65_5pUTR_ENSMUSG00000027217_ENSMUST00000111265|mouse|control|control (ssRNA)
RNA: GGGAGUUCUACAGUCCGACGAUCGGGCUAGGCGUCAAAGCGACAAGGAGCGGCGACGCCCGCUGGGGGCCAGGGCCGGGCGGCCUGGCGUGGCUGGGCUUCGGAAUCGCACAGCGUUGCGUCCGCCUGCAGCUUGCAGCCCCUCAACAGAGGAUUGAGCAUCA
B7: chr3:100432656:100432657:+_ENSG00000114354_ENST00000490574|hu_hu|motif|central (ssRNA)
RNA: GGGAGUUCUACAGUCCGACGAUCUGUUACUUCAUCAUUACUCAGAAGUUUUCCUCUGAAAACUCGUUGCAUCAUUAGCACGGAUUCAUCAUAAGUAAUAUCUUCAUUAUGAAUAGGAAUUCGCCGAAUAUCCUCCCCAAGUUGCAACAGAGGAUUGAGCAUCA
B8: chr1:220276048:220276049:+_ENSG00000067704_ENST00000302637|hu_hu|hu_hu_hu_mus_True|8_38 (ssRNA)
RNA: GGGAGUUCUACAGUCCGACGAUCGCAAAUUGCCUGGUUGGCGGGAAUUGUCCAAGGCUGGGUGGUCCAAACUAAAACGCUAACAGGGGAUGAGGCAUCUAUAAGAGACUCCAACUUCGGAGGAGGUUUUAAGAGAGGGAAUCUCAACAGAGGAUUGAGCAUCA
B9: 57917422_57918035_542_CDS_ENSMUSG00000003226_ENSMUST00000003310|mouse|control|control (ssRNA)
RNA: GGGAGUUCUACAGUCCGACGAUCAAGUUCUGACUGAAUCAAGUCAAAAAGUUUAUUCCAUCCAUCUUCACCUUUACAAUCUAAAAGUUGUUCCUUUAACUUAUAAAUGGCAGGACUUCCUGGGAAAAGUUUGGCUGCUCUUUCCAACAGAGGAUUGAGCAUCA
B10: 42481715_42481835_2119_CDS_ENSMUSG00000024491_ENSMUST00000091920|mouse|control|control (ssRNA)
RNA: GGGAGUUCUACAGUCCGACGAUCGGGGGAAGACUGGGUUACCAUCACCUGCUGCGGAUGAAGAUGCUGUGGGAGGCUAUGGUGUUGCUGUGAAAGGUGACUCAGGGUGUGUUGCUGCUGCAGGAGAAUCUGUGCUGAGGACUGCAACAGAGGAUUGAGCAUCA
B11: 46559684_46559804_1756_3pUTR_ENSG00000123200_ENST00000242848|human|control|control (ssRNA)
RNA: GGGAGUUCUACAGUCCGACGAUCGGUAUCUCUGCUAUAAUCUCUCAUCUCCCUUGAGUCCCGCAUGUCUCUGGAGUCUCUUAGUUCCCUUCGGUCCCUAGUAUCUCUGGCAUCUCUCCGAUCCCGACCAUCUCGAGGUUCUCUCAACAGAGGAUUGAGCAUCA
B12: chr14:34206250:34206251:-_ENSMUSG00000021936_ENSMUST00000111945|mus_hu|FALSE|FALSE (ssRNA)
RNA: GGGAGUUCUACAGUCCGACGAUCUGCAGUCCUGGCCAGACCGAAGUCAAGAAUCUUCAAAGUGCAAUCAGAUUUUACUACUAUAUUACUGGGCUUUAAGUCCCGAUGAAUAAUUCCAGCAGAAUGAAGGUGCUUGAUUCCACACAACAGAGGAUUGAGCAUCA
B13: chr7:91259230:91259231:-_ENSMUSG00000038459_ENSMUST00000117085|mus_mus|FALSE|FALSE (ssRNA)
RNA: GGGAGUUCUACAGUCCGACGAUCCCCCUCAACCCACAGGGGCUCCACAGCACGGGGACAGCGCUCAUACAUCGCCAAGCCAUGGGAGAAAUCGAUGACCUCAUCCUCGGUACCGUGAAUGACCAACACAGGAGAGGUGACUUUCAACAGAGGAUUGAGCAUCA
B14: chr1:163117127:163117128:-_ENSG00000143248_ENST00000313961|hu_mus|hu_hu_hu_mus_False|88_108 (ssRNA)
RNA: GGGAGUUCUACAGUCCGACGAUCUGCGGGUUAUUAUGUAACUCAACACUCACAGGAACUUUUGGAAGCCUGACCAGAUGACUACUUGAUUAGCUCCUUAUAAAAUUCAGAGCGCACAAAGCGGGGCAGAGAAUCCUUCUCCAUCAACAGAGGAUUGAGCAUCA
B15: chr7:140404665:140404666:+_ENSG00000090266_ENST00000247866|hu_hu|hu_hu_hu_mus_False|8_108 (ssRNA)
RNA: GGGAGUUCUACAGUCCGACGAUCUGCGUACAGAGUGCCAGAGAGUUUACAGUGUCAGUCCUCGUCAUCAGGAGGGAUUCCCAGUUCUUCAUCUGUCCACUGUGAAGGAUCUGGAUAUGAAAAGUGACCCAGCACCUCAUCCGACAACAGAGGAUUGAGCAUCA
B16: 131767450_131767570_510_ncRNA_ENSMUSG00000040025_ENSMUST00000102570|mouse|control|control (ssRNA)
RNA: GGGAGUUCUACAGUCCGACGAUCCCGAGCAGGGAAGAAAGGAACCGGCCUGGGGGGGACGCGUGGUGAGGGGGAGGCGGGGACGAGCGCUAGGCCGGCGGGGCAGCCCCGGCAGCCCGGCCACCCGGCAGCCACACGAGGGAACAACAGAGGAUUGAGCAUCA
B17: chr6:114281168:114281169:-_ENSG00000196591_ENST00000368632|hu_mus|motif|central (ssRNA)
RNA: GGGAGUUCUACAGUCCGACGAUCUUCCAUUUUUCGGUAUAAACCAUAAUUUAGCAGCAAGUUAUGAGUCAUCCGGAUUCGGUGAGGCUUCAUGGGAUGACCCUGGCCAUAAUAAUAAUUGCCAAUAUCACCAUCAUAGUAGUACAACAGAGGAUUGAGCAUCA
B18: chr11:93807532:93807533:+_ENSMUSG00000059474_ENSMUST00000107854|mus_mus|motif|central (ssRNA)
RNA: GGGAGUUCUACAGUCCGACGAUCGUACACGUUGAACUGUGAAAGAGAACGGGCUACUGAGCUGUACGACGACAGGCAUUAUGGCGGCGAUGGAAGCCUCCUCUGGUUAACGGUCUGUGUUAGCAGCAGGAGCGAGGGUCUUAACAACAGAGGAUUGAGCAUCA
B19: chr1:154963231:154963232:+_ENSMUSG00000042751_ENSMUST00000043313|mus_mus|motif|central (ssRNA)
RNA: GGGAGUUCUACAGUCCGACGAUCGGCUCUGCCUUCUUUCCUGGAUGUGGCCCUCCGCACUUACGAGUGCUGAGACUGGCGGUAGUGUCCUAUCAGAAGGGAAGUAAACCACAGGAGAGCAUCAAGACUACAAACAAACAAACACAACAGAGGAUUGAGCAUCA
B20: chr14:66974463:66974464:+_ENSMUSG00000022044_ENSMUST00000074523|mus_hu|mus_mus_mus_hu_False|68_88 (ssRNA)
RNA: GGGAGUUCUACAGUCCGACGAUCUUGUAGGACGACUUAUUCAGGGGAUCAGACAAGAAGCAGGAGCAGAACAGAGACACCAGCGGGAGCUCCUUCAUCUUCUCUUUGUAGGCAGCAAGGGUCAUGUUUCUGGGAUCUGGUGGCCAACAGAGGAUUGAGCAUCA
B21: chr16:57506169:57506170:-_ENSG00000125170_ENST00000340099|hu_mus|FALSE|FALSE (ssRNA)
RNA: GGGAGUUCUACAGUCCGACGAUCCUGCCACACAUGUGAACAGUGGUUAUUUACAAGGUCUGUUCCCACAAAUCAGAACCCUAAAGUAUUAAAAAACAGAAACACGCAACAAAAGGUUUGAUGUGAAUAGAAAGAUAGCCCUUCCAACAGAGGAUUGAGCAUCA
B22: chr1:109605286:109605287:-_ENSG00000197780_ENST00000461096|hu_mus|hu_hu_hu_mus_True|78_88 (ssRNA)
RNA: GGGAGUUCUACAGUCCGACGAUCAAGUUUCAGAGUAACAUUCAGUAUACUUAAAUCCAAUUGUAAUCCUUAUUAUAAGCUAAGCAGAAUAAUAAUUUAAUACCGUAAGUGAACUACACACAAAGCCUGAACCGCGAAAAUGGUCAACAGAGGAUUGAGCAUCA

This is one part of the list.

In the experiment the target is T1, UNK ZnF1-3. Briefly: nsRBNS (natural sequence RNA bind-n-seq); RBNS binding buffer (assumed for nsRBNS): 25 mM Tris pH 7.5, 150 mM KCl, 3 mM MgCl2, 0.01% Triton X-100, 500 ug/ml BSA, 20 U/ml SUPERase-In, 4 C; UNK is unkempt and MSI1 is Musashi-1; names of the RNAs are library labels; protein concentration not given here; high values mean tight binding.
Turning to B1, the binding signal was found to be 0.827 enrichment R. For the molecule B2, the binding signal turned out to be 0.854 enrichment R. The figure for B3 is 1.42 enrichment R. In the case of B4 it was 1.06 enrichment R; in that of B5, 1.73 enrichment R.

In the case of B6, the binding signal came to 0.473 enrichment R. The figure for B7 is 0.432 enrichment R. B8 gave a binding signal of 2.49 enrichment R. In turn, B9 had a binding signal of 0.962 enrichment R. The figure for B10 is 1.46 enrichment R; for B11 it is 0.707 enrichment R; for B12 it is 0.618 enrichment R.

Molecule B13 gave a binding signal of 1.38 enrichment R.

B14 had a binding signal of 0.958 enrichment R. For the molecule B15, the binding signal was determined as 1.32 enrichment R. The molecule B16 registered a binding signal of 2.09 enrichment R. In the case of B17 it was 0.739 enrichment R; in that of B18, 0.986 enrichment R; in that of B19, 1.29 enrichment R. On to B20, for which the binding signal came out at 1.95 enrichment R. The molecule B21 gave a binding signal of 2.26 enrichment R. In the case of B22 it was 0.984 enrichment R.
